{"source": "PubChem BioAssay AID588855", "about": "(National Center for Advancing Translational Sciences (NCATS), 2011)", "note": "Where “and” joins values, the source holds several entries; their conditions need not be identical. Equal entries are not always repeated. In all, about 410,000 compounds went through this assay and about 5,000 (1.2%) were called active. This list was built around the results that the source calls inconclusive (neither active nor inactive); the mix of calls is not that of the screen. Calls follow the shape of the dose curve; as a rule, active = well fitted inhibition curve with a large enough effect; inconclusive = small, poorly fitted or top-dose-only effect; inactive = no such curve, though single readings can be large or run the other way. Where the call is inconclusive, the potency comes from a doubtful curve fit. Potency is read from the fitted curve at half-maximal effect; tags tell the direction and shape of the fitted curve."}
{"assay": "qHTS for Inhibitors of TGF-b; also: nearly all actives have a fitted effect of over 65% in size", "details": "HepG2 CAGA-GFP TGF-b/SMAD3 reporter, GFP fluorescence, 18 h, TGF-beta stimulated, 500 pg/mL final; series mostly up to 46.1 µM", "outline": "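Inhibition of TGF-beta-driven CAGA-GFP reporter expression in HEPG2 cells is measured by cellular GFP fluorescence after 18 h stimulation with 500 pg/mL recombinant TGF-beta in 1% FBS medium at 37 degrees C.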"}
{"smiles": "C=CCN(CC=C)Cc1cc(=O)oc2cc(C)cc(C)c12", "Potency": "inconclusive: 25.1 µM [inhibitor, single point]"}
{"smiles": "CC(CNC(=O)COc1ccccc1)OC(=O)Nc1ccc(Cl)c(Cl)c1", "note": "(centres undefined)", "Potency": "inconclusive: 14.1 µM [inhibitor, partial curve, poor fit]"}
{"smiles": "CN(C(=O)CSc1nc(-c2ccccc2)cn1N)C(c1ccccc1)c1ccccc1", "Potency": "inconclusive: 35.5 µM [inhibitor, partial curve, poor fit]"}
{"smiles": "COc1cc(-c2cc(OC)c3c(C)oc(C)c3c(=O)c2)ccc1OC(=O)c1cccc(C)c1", "Potency": "inactive"}
{"smiles": "Cc1nn(S(=O)(=O)c2ccc(F)cc2)c(C)c1S(=O)(=O)N1CCCCCC1", "Potency": "inconclusive: 2.82 µM [inhibitor, partial curve, poor fit]"}
{"smiles": "COc1cnc(-c2ccccc2)nc1OC", "Potency": "inactive"}
{"smiles": "COc1ccc(N(C)S(=O)(=O)c2cccc(C(=O)N3CCN(S(=O)(=O)c4ccc(C)cc4)CC3)c2)cc1", "Potency": "inconclusive: 11.2 µM [inhibitor, single point]"}
{"smiles": "CN(C)/C=C/C(=O)c1ccc(N2CCN(c3ncc(C(F)(F)F)cc3Cl)CC2)cc1", "Potency": "inconclusive: 35.5 µM [inhibitor, single point]"}
{"smiles": "COC(=O)C(=Cc1ccc(-c2ccsc2C(=O)OC)o1)C(=O)OC", "Potency": "inconclusive: 11.2 µM [inhibitor, partial curve]"}
{"smiles": "CC(=O)C(Cl)C(=O)Nc1ccccc1", "note": "(centres undefined)", "Potency": "inconclusive: 35.5 µM [inhibitor, single point]"}
{"smiles": "COc1cccc(NC2=C(C#N)C(=O)NC(c3cccc(OC)c3O)S2)c1", "note": "(centres undefined)", "Potency": "inconclusive: 35.5 µM [inhibitor, single point]"}
{"smiles": "Cc1cc(C)c(C#N)c(Nc2ccccc2Cl)n1", "Potency": "inactive"}
{"smiles": "Cc1ccoc1C(=O)N1CCCC(CCC(=O)N2CCN(c3ccccn3)CC2)C1", "note": "(centres undefined)", "Potency": "inactive"}
{"smiles": "C=C1CN(CC(=O)OC)S(=O)(=O)c2ccccc21", "Potency": "inconclusive: 20 µM [inhibitor, partial curve, poor fit]"}
{"smiles": "CC(=O)Nc1cccc(NC(=S)Nc2ccc(F)c(Cl)c2)c1", "Potency": "inconclusive: 31.6 µM [inhibitor, single point]"}
{"smiles": "Brc1cccc(-c2nc3c4ccccc4ccn3c2Cc2ccccc2)c1", "Potency": "inconclusive: 25.1 µM [inhibitor, single point]"}
{"smiles": "Cc1ccc(NC(=O)Cc2cc(C(=O)O)c3ccccc3n2)c(C)c1", "Potency": "active: 8.91 µM"}
{"smiles": "CCCP(=O)(CC(=O)N(CC)CC)c1ccccc1", "note": "(centres undefined)", "Potency": "inactive"}
{"smiles": "CCC(C)(C)NC(=O)C(c1ccccn1)N(C(=O)c1csnn1)c1ccc(C)c(C)c1", "note": "(centres undefined)", "Potency": "inconclusive: 10 µM [inhibitor, partial curve, poor fit]"}
{"smiles": "CCOC(=O)C1Cc2c([nH]c3ccccc23)CN1", "note": "(centres undefined)", "Potency": "inconclusive: 35.5 µM [inhibitor, single point]"}
{"smiles": "COCCn1c(-c2ccc(Br)cc2)csc1=Nc1cccnc1", "Potency": "inconclusive: 3.16 µM [inhibitor, partial curve, poor fit]"}
{"smiles": "CCOC(=O)c1sc2nc(C)nc(NCc3cccnc3)c2c1C", "Potency": "inactive"}
{"smiles": "COc1ccc(CNC(=S)Nc2cc(OC)ccc2OC)cc1", "Potency": "inactive"}
{"smiles": "CCN1C(=S)N[C@@H](CCc2ccccc2)C(C(=O)OC)=C1C", "Potency": "inconclusive: 12.6 µM [inhibitor, partial curve]"}
{"smiles": "COc1ccc(CCNC(=O)c2ccc3c(c2)N=C(C)c2ccccc2S3)cc1OC", "Potency": "inconclusive: 35.5 µM [inhibitor, single point]"}
{"smiles": "CSc1ccc(C(O)c2ncc(-c3ccccc3F)[nH]2)cc1", "note": "(centres undefined)", "Potency": "inactive"}
{"smiles": "COc1cc(-c2noc(C)c2/C=C/c2ccc(N)cc2)cc(OC)c1OC", "Potency": "inconclusive: 1.41 µM [inhibitor, full curve, poor fit] and inconclusive: 794 nM [inhibitor, full curve, poor fit]"}
{"smiles": "Cc1nn(CC(=O)NCCCN2CCCC2=O)c(C)c1[N+](=O)[O-]", "Potency": "inactive"}
{"smiles": "Cc1ccccc1N=Cc1cccc(O)c1O", "Potency": "active: 15.8 µM"}
{"smiles": "CCn1c(SCC(=O)Nc2ccc(C)cc2)nnc1-c1cnccn1", "Potency": "inactive"}
{"smiles": "CC1Cc2cc(/C(O)=C3/C(=O)C(=O)N(CCN4CCOCC4)C3c3cccc(Cl)c3)ccc2O1", "note": "(centres undefined)", "Potency": "inconclusive: 6.31 µM [inhibitor, single point]"}
{"smiles": "Cc1cc(S(=O)(=O)NC2CCN(Cc3ccccc3)CC2)c(C)cc1Cl", "Potency": "inconclusive: 25.1 µM [inhibitor, single point]"}
{"smiles": "Nc1nc(Nc2cccc(F)c2)nc2ccccc12", "Potency": "inactive"}
{"smiles": "Cc1nc(Nc2ccccc2)sc1C", "Potency": "inactive"}
{"smiles": "COc1cccc(NC(=S)NCCC(c2ccccc2)c2ccccc2)c1", "Potency": "inconclusive: 35.5 µM [inhibitor, partial curve, poor fit]"}
{"smiles": "CN(C(=O)COC(=O)c1ccc(=O)n(Cc2ccccc2)n1)c1ccccc1", "Potency": "inconclusive: 3.98 µM [inhibitor, single point]"}
{"smiles": "CC(C)Cn1c(SCC(=O)N2CCCc3ccccc32)nc2ccccc2c1=O", "Potency": "inconclusive: 35.5 µM [inhibitor, single point]"}
{"smiles": "COc1ccc2[nH]c3c(c2c1)CCN1C(=O)C(CC(=O)NCc2ccco2)C[C@H](C(=O)N2CCOCC2)[C@@]31CCC1CCCC1", "note": "(some centres undefined)", "Potency": "inconclusive: 28.2 µM [inhibitor, single point]"}
{"smiles": "Cc1[nH]c(=O)c(C(=O)/C=C/c2ccccc2F)c2c1CCCC2", "Potency": "inconclusive: 35.5 µM [inhibitor, single point]"}
{"smiles": "O=C(c1ccc([N+](=O)[O-])cc1)N1CCN(C(=O)c2ccco2)CC1", "Potency": "inactive"}
{"smiles": "Cc1ccc(NC(=O)CCC(=O)NN=Cc2ccc(C)o2)c(C)c1", "Potency": "inconclusive: 14.1 µM [inhibitor, partial curve]"}
{"smiles": "CCSC(=O)N1c2ccc(OC)cc2C=CC1C#N", "note": "(centres undefined)", "Potency": "inconclusive: 11.2 µM [inhibitor, partial curve, poor fit]"}
{"smiles": "Cc1ccc(CNC(=O)C2CC(c3cccc(F)c3)=NO2)cc1", "note": "(centres undefined)", "Potency": "inactive"}
{"smiles": "O=C(NCc1ccc2c(c1)OCO2)c1cc(F)c(F)cc1Cl", "Potency": "inconclusive: 35.5 µM [inhibitor, single point]"}
{"smiles": "O=C1C=C(c2ccc(Br)c3ccccc23)C[C@@H](c2ccc3c(c2)OCO3)C1", "Potency": "inconclusive: 35.5 µM [inhibitor, single point]"}
{"smiles": "COc1ccc(OC)c(-c2cc(C(=O)NCc3cccs3)no2)c1", "Potency": "inconclusive: 12.6 µM [inhibitor, single point]"}
{"smiles": "CC(=O)Nc1cccc(C(=O)OCC(=O)NC(=O)C2CCCCC2)c1", "Potency": "inactive"}
{"smiles": "CC(O/N=C(\\N)c1ccccc1)C(=O)Nc1cccc(C(F)(F)F)c1", "note": "(centres undefined)", "Potency": "inconclusive: 28.2 µM [inhibitor, single point]"}
{"smiles": "CCOc1cccc2sc(N(CCCN(C)C)C(=O)c3ccc(S(=O)(=O)N(C)Cc4ccccc4)cc3)nc12", "Potency": "inconclusive: 35.5 µM [inhibitor, single point]"}
{"smiles": "CCN(CC)S(=O)(=O)c1ccc(NC(=O)CCC2CCCCC2)cc1", "Potency": "inconclusive: 35.5 µM [inhibitor, single point]"}
{"smiles": "CCOC(=O)c1c(C)[nH]c(C)c1S(=O)(=O)N1CCN(c2cc(Cl)ccc2C)CC1", "Potency": "inconclusive: 35.5 µM [inhibitor, single point]"}
{"smiles": "O=C(CNC(=O)c1cccc(S(=O)(=O)N2CCc3ccccc32)c1)Nc1ccc(F)c(F)c1F", "Potency": "inactive"}
{"smiles": "Cc1ccc(Nc2c3c(nc4ccccc24)CCC3)cc1", "Potency": "inconclusive: 11.2 µM [inhibitor, partial curve]"}
{"smiles": "CCC(c1nnc(SCC(=O)N(C)c2ccccc2)n1Cc1ccccc1)N(C)C", "note": "(centres undefined)", "Potency": "inconclusive: 3.55 µM [inhibitor, single point]"}
{"smiles": "COc1cc(CN2CCN(C(c3ccccc3)c3ccccc3)CC2)cc(OC)c1OC", "Potency": "inconclusive: 35.5 µM [inhibitor, single point]"}
{"smiles": "COc1ccc(S(=O)(=O)/N=C2\\C=C(NS(=O)(=O)c3ccccc3)C(=O)c3ccccc32)cc1", "Potency": "inconclusive: 22.4 µM [inhibitor, single point]"}
{"smiles": "CCOc1cccc2sc(NC(=O)c3ccc(S(=O)(=O)N4CCCCC4C)cc3)nc12", "note": "(centres undefined)", "Potency": "inactive"}
{"smiles": "CCOC(=O)c1c(-c2ccccc2)oc2ccc(OCc3ccccc3Br)cc12", "Potency": "inactive"}
{"smiles": "CCOc1ccccc1NC(=O)Cn1c(=O)oc2ccccc21", "Potency": "inactive"}
{"smiles": "CCN1CCCC1CNC(=O)c1ccc2c(c1)NC(=O)/C(=C\\c1ccc(C)cc1)S2", "note": "(centres undefined)", "Potency": "inconclusive: 22.4 µM [inhibitor, single point]"}
{"smiles": "CC(=O)Oc1c(I)cc(I)cc1C(=O)Nc1ccc(Cl)cc1", "Potency": "active: 5.01 µM"}
{"smiles": "O=C(NCc1cccs1)c1nc(-c2cccs2)no1", "Potency": "inconclusive: 35.5 µM [inhibitor, single point]"}
{"smiles": "COCCCNC(=S)NCCNc1nc2cc(C)c(C)cc2cc1C#N", "Potency": "inconclusive: 2 µM [inhibitor, full curve]"}
{"smiles": "COc1ccc(NC(=O)Cn2cc(C(=O)c3ccc(C)c(C)c3)c(=O)c3cc(OC)ccc32)cc1", "Potency": "inactive"}
{"smiles": "O=C(NCCc1cccs1)c1ccc(Cn2c(SCc3cccc(F)c3)nc3cccnc32)cc1", "Potency": "inconclusive: 3.55 µM [inhibitor, full curve]"}
{"smiles": "CCNc1nc2c(c(=O)n(C)c(=O)n2C)n1Cc1ccc(F)cc1", "Potency": "inconclusive: 2.51 µM [inhibitor, full curve]"}
{"smiles": "Cc1ccccc1S(=O)Cc1ccc(C(=O)NCc2ccccc2Cl)o1", "note": "(centres undefined)", "Potency": "inactive"}
{"smiles": "Cc1ccc(CSC2=NC(C)(C)Nc3ccccc32)c(C)c1", "Potency": "inconclusive: 35.5 µM [inhibitor, single point]"}
{"smiles": "O=C(Cn1cc(C(=O)c2ccco2)c2ccccc21)Nc1ccccc1C(F)(F)F", "Potency": "inconclusive: 20 µM [inhibitor, single point]"}
